# According to article PMC4336329 (PLoS ONE, 2015):
# About 14,000 (4.5%) of roughly 310,000 compounds showed an effect of 50% or more. Effects have a minus sign here. The list shows a part of the results.
# Target: human ether-à-go-go-related gene (hERG) potassium channel (human, UniProt Q12809)
# Assay: primary screen, population patch clamp on CHO cells stably expressing hERG
# 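Also: peak tail current of the secondary pulse compared with the same well before compound.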
# Sequence of human ether-à-go-go-related gene (hERG) potassium channel (Q12809 whole entry, looked up): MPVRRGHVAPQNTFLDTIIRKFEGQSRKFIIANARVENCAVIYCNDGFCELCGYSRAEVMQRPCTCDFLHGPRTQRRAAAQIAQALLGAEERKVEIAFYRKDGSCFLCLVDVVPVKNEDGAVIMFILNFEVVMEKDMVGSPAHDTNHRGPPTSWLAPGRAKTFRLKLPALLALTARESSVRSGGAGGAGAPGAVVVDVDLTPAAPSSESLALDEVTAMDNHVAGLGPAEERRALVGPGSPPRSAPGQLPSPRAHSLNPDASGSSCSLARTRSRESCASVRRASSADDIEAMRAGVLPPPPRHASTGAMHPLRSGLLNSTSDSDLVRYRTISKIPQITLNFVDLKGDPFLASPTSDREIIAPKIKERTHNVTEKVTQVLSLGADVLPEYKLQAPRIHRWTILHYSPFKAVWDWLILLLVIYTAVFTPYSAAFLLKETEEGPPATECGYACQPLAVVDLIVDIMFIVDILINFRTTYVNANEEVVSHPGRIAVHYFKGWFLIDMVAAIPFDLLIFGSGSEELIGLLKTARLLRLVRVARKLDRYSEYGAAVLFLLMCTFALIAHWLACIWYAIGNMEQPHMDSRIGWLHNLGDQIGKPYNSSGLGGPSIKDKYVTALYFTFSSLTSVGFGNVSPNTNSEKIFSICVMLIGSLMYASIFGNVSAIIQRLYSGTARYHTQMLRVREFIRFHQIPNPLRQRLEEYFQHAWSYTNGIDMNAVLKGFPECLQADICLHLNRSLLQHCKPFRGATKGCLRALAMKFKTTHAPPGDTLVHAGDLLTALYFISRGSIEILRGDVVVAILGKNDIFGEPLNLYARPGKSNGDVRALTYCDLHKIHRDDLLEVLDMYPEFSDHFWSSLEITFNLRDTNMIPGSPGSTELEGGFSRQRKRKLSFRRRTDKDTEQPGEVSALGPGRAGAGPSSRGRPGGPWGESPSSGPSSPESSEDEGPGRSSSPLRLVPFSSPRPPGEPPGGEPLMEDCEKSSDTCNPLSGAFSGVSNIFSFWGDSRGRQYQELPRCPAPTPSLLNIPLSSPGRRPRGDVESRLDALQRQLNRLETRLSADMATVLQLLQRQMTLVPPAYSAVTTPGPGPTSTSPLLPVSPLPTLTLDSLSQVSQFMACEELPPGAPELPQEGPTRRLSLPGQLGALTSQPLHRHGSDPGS
row,Compound,"hERG current change (%, negative = inhibition) at 10uM"
1,CCc1nc2cc3sc(CC)nc3cc2s1,8.23%
2,COc1ccccc1NC(=O)C(=O)N(c1cccnc1)C(C(=O)NC(C)(C)C)c1ccccc1 (stereo not drawn),18.7%
3,Cc1ccc(C)c(NC(=S)NCCN(C2CCCCC2)C2CCCC2)c1,-68.5%
4,O=C(CNC(=O)C1CCCCC1)NNC(=O)c1ccc(Cl)cc1Cl,12.7%
5,Cc1cc(Oc2ccc3ccccc3c2)nc(SCC(=O)c2ccccc2)n1,13.1%
6,COc1cc(C(=O)NC(CCSC)C(=O)OCc2cc([N+](=O)[O-])cc3c2OCOC3)cc(OC)c1OC (stereo not drawn),3.17%
7,CS(=O)(=O)c1ccc2nc(NC(=O)c3ccc(Cl)cc3)sc2c1,6.42%
8,Cc1cc(N=Cc2c(O)ccc3cc(Br)ccc23)no1,-3.44%
9,CNC(=S)N(C)CCc1cc2c(c(OC)c1C=C1C(=O)NC(=O)NC1=O)OCO2,21.3%
10,Cc1cc(C(=O)N2CCN(c3ccc([N+](=O)[O-])cc3)CC2)no1,-70.6%
11,CCOP(=O)(OCC)C(C)(C)NC(=O)Nc1ccc(Cl)c(Cl)c1,4.04%
12,O=C(CS(=O)(=O)c1ccc(Cl)c(Cl)c1)Nc1ccccc1Cl,32.9%
13,Cc1cc(C)n2nc(C(=O)OCCOc3cccc(Br)c3)nc2n1,-21.6%
14,COc1ccccc1N1CCN(C(=O)c2oc3ccc(Br)cc3c2C)CC1,19.1%
15,CCOC(=O)c1c(NC(C)=O)sc2c(O)c(CN3CCN(CC)CC3)ccc12,5.26%
16,C/C(=N\NC(=O)c1n[nH]c2c1CCC2)c1ccco1,14.6%
17,CN(CCNC(=O)C1CCN(S(=O)(=O)N2CCOCC2)CC1)CCc1ccccc1,-15.9%
18,CN(CP(=O)(O)CCc1ccccc1)S(C)(=O)=O,6.59%
19,Nc1ccc(S(=O)(=O)O)cn1,18%
20,Cc1nnc(NC(=O)CCn2c(=O)oc3ccc(Cl)cc32)s1,21.4%
21,O=C(NCc1ccccc1)N1CCOCC1,-25.7%
22,CCOC(=O)C1C(=O)CC(C)(O)C(C(=O)OCC)C1c1cccc(OC(F)(F)C(F)F)c1 (stereo not drawn),2.47%
23,O=C(c1cccc(C(F)(F)F)c1)N1CCC2(CC1)NCCc1[nH]cnc12,7.75%

row,Compound,"hERG current change (%, negative = inhibition) at 10uM"
1,COc1ccccc1C(=O)COC(=O)c1cnc(C)cn1,1.1%
2,CCc1cc2c3c(c1)C(C)CC(C)(C)N3C(=O)C2=O (stereo not drawn),-15.6%
3,c1csc(Cn2nnnc2CN2CCN(c3nc4ccccc4s3)CC2)c1,-46%
4,O=C(CN1CCN(S(=O)(=O)c2ccccc2)CC1)N1CCc2ccccc21,-10.2%
5,CCC(C)NC(=S)Nc1ccc2nc(N3CCN(CC)CC3)cc(C)c2c1 (stereo not drawn),-28.8%
6,CCCCCC(=O)NC(=S)Nc1ccc(N2CCOCC2)cc1,4.97%
7,N#Cc1c(NC(=O)c2cnccn2)sc2c1CCCC2,1.94%
8,O=C(Nc1ccc(Cc2ccncc2)cc1)C1CCC(N2C(=O)C3C4C=CC(C5CC45)C3C2=O)CC1 (stereo not drawn),9.06%
9,COc1ccc(C(=O)NCC(=O)OCC(=O)Nc2cccc(S(=O)(=O)N3CCCC3)c2)cc1,-15.8%
10,CC(C)(C)c1ccc(/C=N/NC(=S)Nc2cccnc2)cc1,27.8%
11,CC(=O)NC(CC(=O)Nc1cc(Cl)ccc1-n1cncn1)c1ccccc1 (stereo not drawn),7.8%
12,Cc1cc(NC(=O)CSc2nnc(CNC(=O)c3ccc(C(C)(C)C)cc3)o2)no1,13.6%
13,N#CC(C#N)=C1CCc2ccccc2N1,10.9%
14,O=S(=O)(Nc1nc2ccccc2nc1Cl)c1ccc2ccccc2c1,-12.2%
15,FC(F)(F)c1nc2ccccc2nc1N/N=C\c1ccccc1,12.3%
16,Cc1oc2cc(OCC(=O)O)ccc2c(=O)c1Oc1ccccc1,-17%
17,CN1C(=O)CC(Sc2ncccc2C(=O)O)C1=O (stereo not drawn),2.75%
18,CCOC(=O)c1ccsc1NC(=O)CCS(=O)(=O)c1ccccc1,-11.9%
19,CCCC[C@H]1COCCS(=O)(=O)N1Cc1ccccc1F,-2.13%
20,Cc1ccc2cc(CN(CC(C)C)S(=O)(=O)c3ccccc3)c(=O)[nH]c2c1,17.2%
21,O=S1(=O)C=C(Oc2ccc(F)cc2)c2ccccc21,6.23%
22,C=C1CCN([C@@H](CC(C)C)C(=O)N2CCOCC2)S(=O)(=O)c2ccccc21,13.3%
